Data: patent US12286661B2, “Methods for making high intensity sweeteners” (Firmenich Incorporated, priority 2018, dated 2025)

B1: SEQ ID NO 928: fusion protein having cucurbitadienol synthase activity (protein)
chain: MTIGDKLKKKLGSAAPGSGSGSGMWRLKVGKESVGEKEEKWIKSISNHLGRQVWEFCSGENENDDDEAIAVANNSASKFENARNHFRNNRFHRKQSSDLFLAIQCEKEIIRNGAKNEGTTKVKEGEDVKKEAVKNTLERALSFYSAVQTSDGNWASDLGGPMFLLPGLVIALYVTGVLNSVLSKHHRQEMCRYIYNHQNEDGGWGLHIEGSSTMFGSALNYVALRLLGEAADGGEHGAMTKARSWILERGGATAITSWGKLWLSVLGVYEWSGNNPLPPEFWLLPYSLPFHPGRMWCHCRMVYLPMSYLYGKRFVGPITPIVLSLRKELYTIPYHEIDWNRSRNTCAKEDLYYPHPKMQDILWGSIYHVYEPLFSGWPGKRLREKAMKIAMEHIHYEDENSRYICLGPVNKVLNMLCCWVEDPYSDAFKFHLQRIPDYLWLAEDGMRMQGYNGSQLWDTAFSIQAIISTKLIDTFGPTLRKAHHFVKHSQIQEDCPGDPNVWFRHIHKGAWPFSTRDHGWLISDCTAEGLKASLMLSKLPSKIVGEPLEKNRLCDAVNVLLSLQNENGGFASYELTRSYPWLELINPAETFGDIVIDYSYVECTSATMEALALFKKLHPGHRTKEIDAAIAKAANFLENMQKTDGSWYGCWGVCFTYAGWFGIKGLVAAGRTYNNCVAIRKACNFLLSKELPGGGWGESYLSCQNKVYTNLEGNKPHLVNTAWVMMALIEAGQGERDPAPLHRAARLLINSQLESGDFPQQEIMGVFNKNCMITYAAYRNIFPIWALGEYSHRVLDM
modifications: SS3c-E5Full Gene AA seq
B2: SEQ ID NO 924: fusion protein having cucurbitadienol synthase activity (protein)
chain: MEDGKQAISEGSAAPGSGSGSGMWRLKVGKESVGEKEEKWIKSISNHLGRQVWEFCSGENENDDDEAIAVANNSASKFENARNHFRNNRFHRKQSSDLFLAIQCEKEIIRNGAKNEGTTKVKEGEDVKKEAVKNTLERALSFYSAVQTSDGNWASDLGGPMFLLPGLVIALYVTGVLNSVLSKHHRQEMCRYIYNHQNEDGGWGLHIEGSSTMFGSALNYVALRLLGEAADGGEHGAMTKARSWILERGGATAITSWGKLWLSVLGVYEWSGNNPLPPEFWLLPYSLPFHPGRMWCHCRMVYLPMSYLYGKRFVGPITPIVLSLRKELYTIPYHEIDWNRSRNTCAKEDLYYPHPKMQDILWGSIYHVYEPLFSGWPGKRLREKAMKIAMEHIHYEDENSRYICLGPVNKVLNMLCCWVEDPYSDAFKFHLQRIPDYLWLAEDGMRMQGYNGSQLWDTAFSIQAIISTKLIDTFGPTLRKAHHFVKHSQIQEDCPGDPNVWFRHIHKGAWPFSTRDHGWLISDCTAEGLKASLMLSKLPSKIVGEPLEKNRLCDAVNVLLSLQNENGGFASYELTRSYPWLELINPAETFGDIVIDYSYVECTSATMEALALFKKLHPGHRTKEIDAAIAKAANFLENMQKTDGSWYGCWGVCFTYAGWFGIKGLVAAGRTYNNCVAIRKACNFLLSKELPGGGWGESYLSCQNKVYTNLEGNKPHLVNTAWVMMALIEAGQGERDPAPLHRAARLLINSQLESGDFPQQEIMGVFNKNCMITYAAYRNIFPIWALGEYSHRVLDM
modifications: SS3c-G8 Full Gene AA seq
B3: SEQ ID NO 920: fusion protein having cucurbitadienol synthase activity (protein)
chain: MTTQQEELDVGDSEGSAAPGSGSGSGMWRLKVGKESVGEKEEKWIKSISNHLGRQVWEFCSGENENDDDEAIAVANNSASKFENARNHFRNNRFHRKQSSDLFLAIQCEKEIIRNGAKNEGTTKVKEGEDVKKEAVKNTLERALSFYSAVQTSDGNWASDLGGPMFLLPGLVIALYVTGVLNSVLSKHHRQEMCRYIYNHQNEDGGWGLHIEGSSTMFGSALNYVALRLLGEAADGGEHGAMTKARSWILERGGATAITSWGKLWLSVLGVYEWSGNNPLPPEFWLLPYSLPFHPGRMWCHCRMVYLPMSYLYGKRFVGPITPIVLSLRKELYTIPYHEIDWNRSRNTCAKEDLYYPHPKMQDILWGSIYHVYEPLFSGWPGKRLREKAMKIAMEHIHYEDENSRYICLGPVNKVLNMLCCWVEDPYSDAFKFHLQRIPDYLWLAEDGMRMQGYNGSQLWDTAFSIQAIISTKLIDTFGPTLRKAHHFVKHSQIQEDCPGDPNVWFRHIHKGAWPFSTRDHGWLISDCTAEGLKASLMLSKLPSKIVGEPLEKNRLCDAVNVLLSLQNENGGFASYELTRSYPWLELINPAETFGDIVIDYSYVECTSATMEALALFKKLHPGHRTKEIDAAIAKAANFLENMQKTDGSWYGCWGVCFTYAGWFGIKGLVAAGRTYNNCVAIRKACNFLLSKELPGGGWGESYLSCQNKVYTNLEGNKPHLVNTAWVMMALIEAGQGERDPAPLHRAARLLINSQLESGDFPQQEIMGVFNKNCMITYAAYRNIFPIWALGEYSHRVLDM
modifications: SS3d-G5 Full Gene AA seq
B4: SEQ ID NO 915: fusion protein having cucurbitadienol synthase activity (protein)
chain: MSENHVPAVVKTRGSAAPGSGSGSGMWRLKVGKESVGEKEEKWIKSISNHLGRQVWEFCSGENENDDDEAIAVANNSASKFENARNHFRNNRFHRKQSSDLFLAIQCEKEIIRNGAKNEGTTKVKEGEDVKKEAVKNTLERALSFYSAVQTSDGNWASDLGGPMFLLPGLVIALYVTGVLNSVLSKHHRQEMCRYIYNHQNEDGGWGLHIEGSSTMFGSALNYVALRLLGEAADGGEHGAMTKARSWILERGGATAITSWGKLWLSVLGVYEWSGNNPLPPEFWLLPYSLPFHPGRMWCHCRMVYLPMSYLYGKRFVGPITPIVLSLRKELYTIPYHEIDWNRSRNTCAKEDLYYPHPKMQDILWGSIYHVYEPLFSGWPGKRLREKAMKIAMEHIHYEDENSRYICLGPVNKVLNMLCCWVEDPYSDAFKFHLQRIPDYLWLAEDGMRMQGYNGSQLWDTAFSIQAIISTKLIDTFGPTLRKAHHFVKHSQIQEDCPGDPNVWFRHIHKGAWPFSTRDHGWLISDCTAEGLKASLMLSKLPSKIVGEPLEKNRLCDAVNVLLSLQNENGGFASYELTRSYPWLELINPAETFGDIVIDYSYVECTSATMEALALFKKLHPGHRTKEIDAAIAKAANFLENMQKTDGSWYGCWGVCFTYAGWFGIKGLVAAGRTYNNCVAIRKACNFLLSKELPGGGWGESYLSCQNKVYTNLEGNKPHLVNTAWVMMALIEAGQGERDPAPLHRAARLLINSQLESGDFPQQEIMGVFNKNCMITYAAYRNIFPIWALGEYSHRVLDM
modifications: SS3e-E7 Full gene NT Seq Full gene NT Seq
B5: SEQ ID NO 932: fusion protein having cucurbitadienol synthase activity (protein)
chain: MWRLKVGKESVGEKEEKWIKSISNHLGRQVWEFCSGENENDDDEAIAVANNSASKFENARNHFRNNRFHRKQSSDLFLAIQCEKEIIRNGAKNEGTTKVKEGEDVKKEAVKNTLERALSFYSAVQTSDGNWASDLGGPMFLLPGLVIALYVTGVLNSVLSKHHRQEMCRYIYNHQNEDGGWGLHIEGSSTMFGSALNYVALRLLGEAADGGEHGAMTKARSWILERGGATAITSWGKLWLSVLGVYEWSGNNPLPPEFWLLPYSLPFHPGRMWCHCRMVYLPMSYLYGKRFVGPITPIVLSLRKELYTIPYHEIDWNRSRNTCAKEDLYYPHPKMQDILWGSIYHVYEPLFSGWPGKRLREKAMKIAMEHIHYEDENSRYICLGPVNKVLNMLCCWVEDPYSDAFKFHLQRIPDYLWLAEDGMRMQGYNGSQLWDTAFSIQAIISTKLIDTFGPTLRKAHHFVKHSQIQEDCPGDPNVWFRHIHKGAWPFSTRDHGWLISDCTAEGLKASLMLSKLPSKIVGEPLEKNRLCDAVNVLLSLQNENGGFASYELTRSYPWLELINPAETFGDIVIDYSYVECTSATMEALALFKKLHPGHRTKEIDAAIAKAANFLENMQKTDGSWYGCWGVCFTYAGWFGIKGLVAAGRTYNNCVAIRKACNFLLSKELPGGGWGESYLSCQNKVYTNLEGNKPHLVNTAWVMMALIEAGQGERDPAPLHRAARLLINSQLESGDFPQQEIMGVFNKNCMITYAAYRNIFPIWALGEYSHRVLDMGSAAPGSGSGSGMMLEPSP
modifications: SS2c-E2 Full Gene AA seq

Test system: cucurbitadienol synthase activity
Experiment: Cucurbitadienol synthase activities of fusion proteins in yeast strain with oxidosqualene boost, LCMS
Assay type: cell-based, S. cerevisiae
Details: average % activities over the average activities of the parent enzyme (Cucumis melo cucurbitadienol synthase)
Experimental: For analyzing cucurbitadienol, the first LCMS method included the use of C4 2.1×100 mm column, gradient 1 to 95% B for 6 minutes, and at flow rate of 0.55 ml/min; and the second LCMS method included the use of Waters Acquity UPLC Protein BEH C4 2.1×100 […], 1.7 μm, with guard, 62 to 67% B for 2 min, 100% B for 1 min, and at flow rate of 0.9 ml/min and ESI source positive single ion monitoring of 427 and 409.
The gene encoding for a cucurbitadienol synthase form Cucumis melo was codon optimized (SEQ ID: 907) and used as a starting point for generating a library of modifications. Modifications were introduced through standard molecular biology techniques consisting of fusion peptides at the N-terminus (i.e., 5′) or C-terminus (i.e., 3′) end of the enzyme. Plasmids libraries of modified cucurbitadienol synthase genes were transformed into a yeast strain with oxidosqualene boost. Enzyme activities were measured by ratios of peak heights or areas of 409 and 427 positive mass fragments at the expected retention times for cucurbitadienol vs. an internal standard using LCMS method 2 described above. Enzyme performance were scored as average % activities over the average activities of the parent enzyme (n=8). Step 1 sequences of the enzymes and the sequences that encode the enzyme can be found in SEQ ID NOs: 951-1012. Step 1 sequence also include the fusions SS2c-G10, SS2e-A7b, SS2d-G11. SS2e-A7a, SS4d-G5, SS4d-C7, SS3b-D8, and SS2c-A10a are disclosed herein.
A collection or library of S. cerevisiae in-frame fusion polynucleotdies for a cucurbitadienol synthase gene (DNA coding sequence provided in SEQ ID NO: 907, and protein sequence provided in SEQ ID NO: 902) was prepared. The in-frame fusion polynucleotides were cloned into a yeast vector molecule to generate fusion proteins.
Various fusion proteins were generated and tested for cucurbitadienol synthase activities.

Row | Molecule | Activity (as compared to the parent) [%]
1 | B1 | 117
2 | B2 | 121
3 | B3 | 124
4 | B4 | 124
5 | B5 | 128
